42 sequences from publication PMC7819943, “Rice protein-binding microarrays: a tool to detect cis-acting elements near promoter regions in rice” can be followed below.

Some of the results follow.

The target in the assay is T1, OsWOX13 (Oryza sativa, UniProt Q5QMM3 1-267).
T1 sequence: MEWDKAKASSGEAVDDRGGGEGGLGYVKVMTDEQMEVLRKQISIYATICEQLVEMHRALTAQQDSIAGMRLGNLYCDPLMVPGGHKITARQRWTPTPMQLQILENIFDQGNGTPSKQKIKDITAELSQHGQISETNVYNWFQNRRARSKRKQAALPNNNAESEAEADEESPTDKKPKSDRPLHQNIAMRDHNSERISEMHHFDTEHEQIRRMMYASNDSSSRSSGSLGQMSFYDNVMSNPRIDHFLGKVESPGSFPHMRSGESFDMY
As to the kind of experiment: protein-binding microarray (RPBM); PBS, 2% BSA, 51.3 ng/ul salmon testes DNA, 50 uM zinc acetate, 200 nM TF, 25 C, 1 h; high values mean tight binding. The conditions noted are these: protein: recombinant; tags: N-terminal polyhistidine and DsRed monomer fusion (pET32a); label: CyDye5-dUTP incorporated in the synthesized complementary strand; 3' TTTTT single-stranded linker to array surface; dsDNA, one strand shown. The method in brief: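 The binding signal is fluorescence intensity per array feature (arbitrary units). Readings came from an Axon 4000B scanner after a washed, 2% BSA-blocked, double-stranded custom Agilent array had been incubated for 1 h at 25 °C with 200 nM protein and 50 µM zinc acetate. The protein was a Ni–NTA-purified transcription factor fused N-terminally to polyhistidine and DsRed, expressed in E. coli BL21-CodonPlus.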
“AACAAATTAACAATATGATCGATCGACGATAACGAACTGACGGAGTCACCTAGTGCAG”: the binding signal is 23000 fluorescence intensity (a.u.). The result for “TGGTAAATTTGTTATTTGATAGGTCCAAGAAGAACGATTCCGGAGTCACCTAGTGCAG” reads 21200 fluorescence intensity (a.u.); that for “TTTAATTGTATTAACACTCGTGAGAATGATACATGAGATCCGGAGTCACCTAGTGCAG”, 29000 fluorescence intensity (a.u.). The result for “CAATACATAACAGACAAATTATCAAAATAGATTAAAGTTTCGGAGTCACCTAGTGCAG” reads 4710 fluorescence intensity (a.u.). Next, “CTTCTCTGTAATTGTTTATTTCTTCTAAATGTAATGAAGTCGGAGTCACCTAGTGCAG”: 11800 fluorescence intensity (a.u.); “CATCCACTAATTAACAAGATGCCACATCATCATCCACTAACGGAGTCACCTAGTGCAG”: 17000 fluorescence intensity (a.u.).

Consider “AGACAACAAATCACATTTAATTCATCTACACAGCAGCACCCGGAGTCACCTAGTGCAG”, for which the binding signal was 5330 fluorescence intensity (a.u.). With “TAATAAAACTAATTTGATTTATTAGATACTGCTAAATTTTCGGAGTCACCTAGTGCAG”, the binding signal was 8080 fluorescence intensity (a.u.).

Consider “CATCACTGTAACATTTCAATCTCTTCTATCGGTAGCATGACGGAGTCACCTAGTGCAG”, for which the binding signal was 3210 fluorescence intensity (a.u.). The result for “TTATTGATAAATGATGATAAAATATAATCGAGAACCAAACCGGAGTCACCTAGTGCAG” reads 6160 fluorescence intensity (a.u.). The result for “AGCTAATTAAGCTAGTGAGAGCTAGTGGAGGTACATGGCTCGGAGTCACCTAGTGCAG” reads 11600 fluorescence intensity (a.u.); that for “TCCCAATTATTGGACCTCGACCGCTCCTAAATCCCCTGCCCGGAGTCACCTAGTGCAG”, 18000 fluorescence intensity (a.u.). Regarding “TTGATAATTGGGCACCTATGCCCGACACATAAAACACACTCGGAGTCACCTAGTGCAG”, the binding signal is 22200 fluorescence intensity (a.u.). Next, “TCTGAATCAATCACACTCCTTGCACAATGCCTTCACTGTCCGGAGTCACCTAGTGCAG”: 18400 fluorescence intensity (a.u.). For “AATACAACGTGTGATTGGACTAGATCGGATAAGTAATTTACGGAGTCACCTAGTGCAG”, the binding signal was 9210 fluorescence intensity (a.u.). Next, “ATCTAGATAATTAAACTGTCATAAATATATTAATACCTCGCGGAGTCACCTAGTGCAG”: 22100 fluorescence intensity (a.u.); “GGGAGATTGAGTTTGGCCCGCACAGGGTCTTGTACAAGGACGGAGTCACCTAGTGCAG”: 4500 fluorescence intensity (a.u.); “GATTAATTATTAGAGGAGGAGGAGAAGATTAACAAGATCACGGAGTCACCTAGTGCAG”: 11000 fluorescence intensity (a.u.). With “ACCAACAATAATTTCGCTGTCCACCAATTGCGACCAATACCGGAGTCACCTAGTGCAG”, the binding signal was 4680 fluorescence intensity (a.u.). Next, “TGTTAACTAATTAAATACCCATTATCAAACATTTAATTGACGGAGTCACCTAGTGCAG”: 22900 fluorescence intensity (a.u.); “GCTAATACTTAATTAATAACGCGCTAATAAACCGCTCCGTCGGAGTCACCTAGTGCAG”: 16900 fluorescence intensity (a.u.). Turning to “GTCAGTCACTGGACATTAATCACGTCAGTGATGCTGCTAACGGAGTCACCTAGTGCAG”, the binding signal is 4500 fluorescence intensity (a.u.). Turning to “ACTGAACATCAATCAACATTTGCAAATCTACAGACTGCAGCGGAGTCACCTAGTGCAG”, the binding signal was 20700 fluorescence intensity (a.u.). The result for “CTAACTATCGAAATAATTGGGGTTAAGATTTTCGGTATTGCGGAGTCACCTAGTGCAG” reads 7150 fluorescence intensity (a.u.); that for “GTTTGATTAGGGTAGATAGAGAGAGAGGGGTTGGGTTTGGCGGAGTCACCTAGTGCAG”, 44200 fluorescence intensity (a.u.); that for “ACTAATTAAGAAGTCTTTTGAGCTACTCCACCGGACAATTCGGAGTCACCTAGTGCAG”, 6580 fluorescence intensity (a.u.). In the case of “AAAAGACTAATTAGCATCTCCCGAAAACTGAACCGACATACGGAGTCACCTAGTGCAG”, the binding signal is 19100 fluorescence intensity (a.u.). Next, “TCGAAGGACTAATATGGATAGATTGAAACATCAAGGACTACGGAGTCACCTAGTGCAG”: 5530 fluorescence intensity (a.u.); “CCTCCAATCAACTGTACAATGAGTAGCTCATTTCTCTTTTCGGAGTCACCTAGTGCAG”: 16600 fluorescence intensity (a.u.); “CAGGACTAATTGGGGTTGCAAACTGGGACTACAAACTACTCGGAGTCACCTAGTGCAG”: 28300 fluorescence intensity (a.u.). The result for “CCCCATATTTTGGTGATTGGAGAAATTAAGGGCCCCTTTGCGGAGTCACCTAGTGCAG” reads 17400 fluorescence intensity (a.u.). Turning to “TTTAGATTTATTAACATCTATATGGATGTAGGAAATGTTACGGAGTCACCTAGTGCAG”, the binding signal was 6660 fluorescence intensity (a.u.). As for “ATCTAAAACTAATTAACACTTAACTCAAAAGCTATAAAATCGGAGTCACCTAGTGCAG”, the binding signal was 5170 fluorescence intensity (a.u.).

Regarding “TTTTGATTTGCCACATTTGCAGTGGCATGGATCCAATTAACGGAGTCACCTAGTGCAG”, the binding signal was 15000 fluorescence intensity (a.u.). The result for “CTGACTGCTTCGTCACCAACTCAACGGATTCCATTTCCGCCGGAGTCACCTAGTGCAG” reads 3700 fluorescence intensity (a.u.); that for “CCTTTGTTTATACCTAATTACTAGAATTACTGTCGTGCACCGGAGTCACCTAGTGCAG”, 6800 fluorescence intensity (a.u.).

For “GCAAATTGAATTAATTCGTGTGATATTTGTTCTGCACCGGCGGAGTCACCTAGTGCAG”, the binding signal is 59500 fluorescence intensity (a.u.).

As to “ACACGCTACTAATTGTCAGCTTGCCTGTTACGGAGTACATCGGAGTCACCTAGTGCAG”, the binding signal is 3280 fluorescence intensity (a.u.). As for “CAATTAATCACATATTATTATTTATGTTCAGGAGATTCAACGGAGTCACCTAGTGCAG”, the binding signal was 10900 fluorescence intensity (a.u.). Next, “GACTAATTAAGTTAGAAGCATTAATGTTGCTAGGAGAAAACGGAGTCACCTAGTGCAG”: 16400 fluorescence intensity (a.u.); “CCCACAATTAATTGGGCCTAATGGATCGGTGCCCTTGTGGCGGAGTCACCTAGTGCAG”: 53600 fluorescence intensity (a.u.); “TATAGGGTTTGATTGATCCTGGATGTGCTCCAAGAATCAACGGAGTCACCTAGTGCAG”: 16000 fluorescence intensity (a.u.).
